Source: the supplement of paper PMC6531468
The list shows a part of the results. Values come from read counts of a selection and are noisy. Each score is taken over the longer molecules that contain the sequence shown.

Legend:
Assay in all cases: 6-mer SELEX enrichment z-score vs GST control; IMP3 is the RNA-binding protein IGF2BP3; higher = more enriched by binding
IMP3 KH1-4 = conditions: construct: KH1-4 (164-579); SELEX round: R4
Protocol: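 SELEX-seq with GST-tagged IMP3 KH1-4 (Pro164-Lys579) and an N40 RNA pool, round 4. 6-mer z-score of sequence-tag enrichment normalised to the corresponding GST SELEX round; RNA k-mers written as DNA (T for U).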

IMP3 RRM1-2 = conditions: construct: RRM1-2 (1-163); SELEX round: R2
Protocol: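 SELEX-seq with GST-tagged IMP3 RRM1-2 (Met1-Asn163) and an N40 RNA pool, round 2. 6-mer enrichment z-score normalised to GST SELEX. RNA written as DNA (T = U).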

IMP3 full-length = IMP3 full-length (UniProt O00425); conditions: construct: FL IMP3 (1-579); SELEX round: R4
Protocol: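 SELEX-seq with GST-tagged full-length IMP3 and an N40 RNA pool, round 4. Each 6-mer is scored as an enrichment z-score of sequence tags containing it, normalised to the matching GST SELEX round. RNA written as DNA (T = U).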

IMP3 KH1-2 = conditions: construct: KH1-2 (164-376); SELEX round: R4
Protocol: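 SELEX-seq with GST-tagged IMP3 KH1-2 (Pro164-Phe376) and an N40 RNA pool, round 4 (stringent 300/600 mM KCl washes). 6-mer z-score of sequence-tag enrichment normalised to the corresponding GST SELEX round; RNA k-mers written as DNA (T for U).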

IMP3 KH3-4 = conditions: construct: KH3-4 (377-579); SELEX round: R4
Protocol: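 SELEX-seq with GST-tagged IMP3 KH3-4 (Pro377-Lys579) and an N40 RNA pool, round 4. 6-mer z-score of sequence-tag enrichment normalised to the corresponding GST SELEX round; RNA k-mers written as DNA (T for U).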

Sequence of IMP3 KH3-4 (chain, as listed by the source): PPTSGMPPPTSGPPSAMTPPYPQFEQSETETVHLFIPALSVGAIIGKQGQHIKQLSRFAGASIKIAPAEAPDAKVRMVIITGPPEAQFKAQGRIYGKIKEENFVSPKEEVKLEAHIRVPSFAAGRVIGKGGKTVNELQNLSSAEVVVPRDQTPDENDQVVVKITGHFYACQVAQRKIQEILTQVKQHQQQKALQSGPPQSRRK
Sequence of IMP3 KH1-4 (chain, as listed by the source): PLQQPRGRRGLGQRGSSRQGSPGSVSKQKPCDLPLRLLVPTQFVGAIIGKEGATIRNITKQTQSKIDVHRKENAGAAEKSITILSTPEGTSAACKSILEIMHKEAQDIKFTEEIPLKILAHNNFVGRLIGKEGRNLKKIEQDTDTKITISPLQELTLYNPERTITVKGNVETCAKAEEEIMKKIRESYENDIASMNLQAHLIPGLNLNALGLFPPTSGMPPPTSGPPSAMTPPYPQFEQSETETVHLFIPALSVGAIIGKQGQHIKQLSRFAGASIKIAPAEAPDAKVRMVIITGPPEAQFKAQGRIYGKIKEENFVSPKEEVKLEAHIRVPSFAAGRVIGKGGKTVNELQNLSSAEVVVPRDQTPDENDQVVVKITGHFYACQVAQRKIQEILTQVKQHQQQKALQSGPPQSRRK
Sequence of IMP3 RRM1-2 (chain, as listed by the source): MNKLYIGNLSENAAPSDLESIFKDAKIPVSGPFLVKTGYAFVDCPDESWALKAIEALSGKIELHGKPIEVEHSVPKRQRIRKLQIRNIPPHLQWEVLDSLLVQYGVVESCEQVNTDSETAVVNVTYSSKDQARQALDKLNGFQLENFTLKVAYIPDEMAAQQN
Sequence of IMP3 KH1-2 (chain, as listed by the source): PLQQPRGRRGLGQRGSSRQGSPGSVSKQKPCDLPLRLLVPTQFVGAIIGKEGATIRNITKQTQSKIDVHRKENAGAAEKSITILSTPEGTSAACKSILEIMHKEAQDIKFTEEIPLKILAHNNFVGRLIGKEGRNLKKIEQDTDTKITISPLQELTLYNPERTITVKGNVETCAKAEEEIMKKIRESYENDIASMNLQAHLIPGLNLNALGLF
Sequence of UniProt O00425 (O00425 whole entry): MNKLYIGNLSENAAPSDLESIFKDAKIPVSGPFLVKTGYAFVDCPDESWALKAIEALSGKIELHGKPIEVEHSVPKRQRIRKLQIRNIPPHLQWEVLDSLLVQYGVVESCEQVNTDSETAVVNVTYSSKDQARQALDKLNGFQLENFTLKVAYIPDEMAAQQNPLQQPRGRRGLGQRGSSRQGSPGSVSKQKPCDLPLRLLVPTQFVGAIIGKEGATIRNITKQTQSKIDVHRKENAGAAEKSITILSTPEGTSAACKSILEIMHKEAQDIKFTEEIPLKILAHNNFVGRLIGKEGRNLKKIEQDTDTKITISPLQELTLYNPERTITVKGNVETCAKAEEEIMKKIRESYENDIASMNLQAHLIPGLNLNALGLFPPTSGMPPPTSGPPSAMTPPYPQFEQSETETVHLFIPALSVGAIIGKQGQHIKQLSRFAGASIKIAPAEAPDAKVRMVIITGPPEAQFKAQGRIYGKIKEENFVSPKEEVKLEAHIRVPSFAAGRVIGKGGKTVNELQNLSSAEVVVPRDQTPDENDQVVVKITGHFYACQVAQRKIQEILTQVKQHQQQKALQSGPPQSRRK

Sequence | 6-mer SELEX enrichment z-score (IMP3 KH1-4) | 6-mer SELEX enrichment z-score (IMP3 RRM1-2) | 6-mer SELEX enrichment z-score (IMP3 full-length) | 6-mer SELEX enrichment z-score (IMP3 KH1-2) | 6-mer SELEX enrichment z-score (IMP3 KH3-4)
GGGGCC | 0.39 | -0.017 | 0.66 | 0.936 | 0.422
TAGCAT | 0.262 | 0.423 | 0.409 | 0.163 | 0.202
TTATGT | 0.809 | 0.305 | 0.163 | 0.54 | 0.922
GGTTTA | 0.18 | 0.271 | 0.018 | 0.11 | 0.508
CCATGG | 0.147 | 0.237 | 0.227 | 0.09 | -0.026
CTGCCT | -0.391 | -0.06 | -0.416 | -0.322 | -0.464
TGGTAT | -0.157 | 0.474 | 0.015 | -0.078 | 0.067
ATGCAA | 0.781 | 0.058 | 0.443 | 0.668 | 0.779
GTACAA | -0.242 | -0.152 | 0.157 | -0.252 | -0.292
ACGGAC | -0.127 | -0.636 | -0.227 | -0.474 | -0.51
GCTTAA | 0.085 | -0.165 | -0.317 | 0.074 | 0.463
AAACAA | 0.004 | -0.076 | -0.599 | 0.601 | 1.15
GGTCGG | 1.05 | 0.469 | 1.56 | 1.04 | 0.937
CACCAA | -0.597 | 0.801 | -0.214 | -0.399 | -1.39
CTTTGG | -0.203 | 0.358 | 0.028 | -0.107 | -0.018
AGGGCG | -1.36 | 0.169 | -0.102 | -0.965 | -0.78
TTTGCC | -0.153 | -0.062 | -0.46 | -0.193 | -0.298
GACAAG | -0.168 | -0.628 | -0.336 | -0.268 | -0.196
GTCTAA | -0.467 | -0.214 | -0.36 | -0.484 | -0.287
CGCTCA | -0.138 | 0.698 | 0.652 | 0.065 | -0.276
CTAAGT | -0.137 | -0.093 | -0.308 | -0.145 | -0.054
AAGTAC | -0.693 | -0.45 | -0.558 | -0.809 | -0.669
CACTAT | 1.98 | 0.904 | 0.77 | 1.75 | 1.51
TTGCCG | -0.145 | -0.044 | -0.179 | -0.128 | -0.317
ACTACA | 1.54 | 1.23 | 0.815 | 2.13 | 1.3

Sequence | 6-mer SELEX enrichment z-score (IMP3 KH1-4) | 6-mer SELEX enrichment z-score (IMP3 RRM1-2) | 6-mer SELEX enrichment z-score (IMP3 full-length) | 6-mer SELEX enrichment z-score (IMP3 KH1-2) | 6-mer SELEX enrichment z-score (IMP3 KH3-4)
GGCCCT | -0.185 | -0.092 | 0.278 | -0.112 | -0.28
ACACTA | 1.88 | 1.86 | 0.909 | 2.15 | 1.64
CACCAG | -0.186 | 1.72 | 0.692 | -0.281 | -0.814
TTTCTT | 0.759 | 0.574 | 0.336 | 0.783 | 0.806
TCCTGG | -0.354 | 0.129 | -0.144 | -0.291 | -0.389
GCTACG | -0.284 | 0.007 | -0.063 | -0.24 | -0.236
TAATTA | 1.17 | -0.222 | 0.048 | 1.1 | 2.16
GGTCAG | 0.525 | 0.159 | 0.681 | 0.482 | 0.4
ACAGTG | 0.502 | 0.273 | 0.742 | 0.271 | 0.224
TTAAGT | 0.374 | 0.11 | -0.058 | 0.212 | 0.668
AATTCT | 0.607 | 0.056 | 0.02 | 0.589 | 0.616
TCCATG | 0.491 | 0.124 | 0.09 | 0.219 | 0.061
CACTTC | 0.929 | 1.31 | 0.78 | 1.01 | 0.119
GCCCGT | -0.583 | -0.293 | -0.052 | -0.44 | -0.689
CTCGTC | -0.632 | 0.323 | -0.003 | -0.532 | -0.553
TAGCTT | -0.084 | 0.285 | -0.068 | -0.011 | 0.128
GTCCGC | 0.594 | 0.005 | 0.75 | 0.471 | -0.109
ATATTA | 2.11 | 0.164 | 0.54 | 1.99 | 3.1
TGCGAC | -0.55 | -0.38 | -0.302 | -0.628 | -0.765
GTCGAT | 0.057 | 0.146 | 0.148 | -0.051 | 0.143
GCGGCT | 0.326 | 0.47 | 0.846 | 0.352 | 0.683
TTCGAT | -0.13 | 0.135 | -0.14 | -0.096 | 0.017
CACAAA | 0.65 | 1.74 | 0.85 | 1.03 | 0.24
CTATGA | 0.342 | -0.435 | -0.584 | 0.166 | 0.464
AACGCA | 0.149 | -0.032 | 0.006 | 0.08 | -0.252
